The record followed here is PubChem BioAssay AID1745853 (National Center for Advancing Translational Sciences (NCATS), 2022).

This is one part of the list. Further columns of the screen follow, without active or inactive calls.

Test in all cases: Primary Screen for Target Class Profiling of Small Molecule Inhibitors of Methyltransferases
Assay [1] has as its target Glycine N-methyltransferase (Homo sapiens) (UniProt Q14749). The following applies: purified enzyme, MTase-Glo SAH luminescence; measured here: GNMT inhibition; at 40 µM; stronger effect = lower value. An outline of the steps:
(§1)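 Each enzyme was reacted with SAM and its substrate, with compounds tested once at 40 uM; SAH formed was read by MTase-Glo luminescence.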

Assay [2] concerns the target Guanidinoacetate N-methyltransferase (Homo sapiens) (UniProt Q14353). As to conditions: purified enzyme, MTase-Glo SAH luminescence; measured here: GAMT inhibition; at 40 µM; stronger effect = lower value. Summed up:
as §1

Assay [3] deals with Histamine N-methyltransferase (Homo sapiens) (UniProt P50135). As to conditions: purified enzyme, MTase-Glo SAH luminescence; measured here: HNMT inhibition; at 40 µM; stronger effect = lower value. Summed up:
as §1

For assay [4], the target named is Nicotinamide N-methyltransferase (Homo sapiens) (UniProt P40261). The following applies: purified enzyme, MTase-Glo SAH luminescence; measured here: NNMT inhibition; at 40 µM; stronger effect = lower value. Summed up: as §1
The target in assay [5] is Phenylethanolamine N-methyltransferase (Homo sapiens) (UniProt P11086). The following applies: purified enzyme, MTase-Glo SAH luminescence; measured here: PNMT inhibition; at 40 µM; stronger effect = lower value. An outline of the steps:
as §1
% is scaled to controls: 0 for no effect and ±100 for the full control effect.

`O=C(NCC1CN(S(=O)(=O)c2cccnc2)CC12CCOCC2)N1CCCC1` (configuration not stated): the activity change, negative = inhibition is -2.27% in assay [1]; -5.84% in assay [2]; 0.893% in assay [3]; -9.27% in assay [4]; -5.06% in assay [5].
As to `CC(C)Cn1c(=O)c2ccc(C(=O)NC(C)C)cc2n2c(SCc3ccc(Cl)cc3)nnc12`, the activity change, negative = inhibition in assay [1] was 1.48%; in assay [2] it was 2.06%; in assay [3], -0.783%; in assay [4] it was 1.34%; in assay [5] it was 0.159%.
The like results for `COc1cc2ncnc(Nc3ccc(F)c(Cl)c3)c2cc1NC(=O)/C=C/CN1CCCCC1` were, in that order, -41.7%, -18.3%, -57.1%, -30.7% and -41.9%.
With `CCOC(=O)c1cc2n(n1)CC(C)(C(=O)NCc1ccc(C)cc1)N(c1ccc3c(c1)OCO3)C2=O` (configuration not stated), the activity change, negative = inhibition in assay [1] is 0.668%; in assay [2], 1.7%; in assay [3], 3.24%; in assay [4], -2.51%; in assay [5] it was -2.21%.
For the compound `Nc1nccc(-c2ccc3noc(-c4ccc(Cl)cc4)c3c2)n1`, the activity change, negative = inhibition in assay [1] was -36.2%; in assay [3], 3.23%; in assay [4], 12.4%; in assay [5], 35.9%.
As for `COCC(=O)N[C@H]1C[C@@H](CO)N(Cc2ccsc2)C1`, the activity change, negative = inhibition in assay [1] was -5.56%; in assay [2] it was -6.34%; in assay [3], -3.38%; in assay [4] it was -9.78%; in assay [5], -6.92%.
Regarding `O=c1c2ccccc2n2c(SCc3ccccc3F)nnc2n1Cc1ccccc1`, the activity change, negative = inhibition is -6.85% in assay [1]; 4.17% in assay [2]; -3.05% in assay [3]; -9.89% in assay [4]; 1.63% in assay [5].
Turning to `CCC(C)C(=O)O[C@@H]1[C@@H](O)[C@@H](O[C@H]2O[C@H](CO)[C@@H](O)[C@H](O)[C@H]2O)O[C@H](CO)[C@H]1O` (some centres not stated), the activity change, negative = inhibition in assay [1] was 2.88%; in assay [2] it was 6.43%; in assay [3], 4.5%; in assay [4], -7.58%; in assay [5], 6.05%.
Consider `O=C(CCC1CCN(Cc2cn(-c3ccccc3)nn2)CC1)N1CCOCC1`, for which the activity change, negative = inhibition in assay [1] is 2.38%; in assay [2], 3.23%; in assay [3], 0.421%; in assay [4] it was 7.47%; in assay [5], -2.93%.
On to `CC(C)CCn1c(=O)c2ccccc2n2c(CCC(=O)N3CCN(c4ccc(F)cc4)CC3)nnc12`, for which the activity change, negative = inhibition was -15% in assay [1]; 1.41% in assay [2]; -6% in assay [3]; -40.5% in assay [4]; -0.355% in assay [5].
The like results for `O=C(NCCCc1ccccc1F)[C@@]12CNC[C@@H]1CN(Cc1ccccc1)C2` were, in that order, -5.02%, -3.46%, -11.4%, -16.1% and -24.1%.
For `CN1CCC(N2CC[C@H](c3nc4ccccc4[nH]3)C2)CC1`, the activity change, negative = inhibition was -6.81% in assay [1]; -2.46% in assay [2]; -74.8% in assay [3]; -9.06% in assay [4]; -3.35% in assay [5].
Take `C=CC(=O)Nc1cccc(Nc2nc(Nc3ccccc3)ncc2C)c1`: the values for the activity change, negative = inhibition in assay [2], in assay [4] and in assay [5] were -2.8%, -24.3% and -13.6%, respectively.
With `COc1ccc2c(c1)O[C@H](O[C@@H]1O[C@H](CO)[C@@H](O)[C@H](O)[C@H]1O)C(=O)N2`, the activity change, negative = inhibition in assay [1] was -0.043%; in assay [2] it was 6.4%; in assay [3] it was 8.74%; in assay [4] it was -5.34%; in assay [5], 4.35%.
In the case of `C[C@H]1CN(C(=O)CCCc2ccccc2)C[C@@H]1c1nc(-c2ccccc2)no1`, the activity change, negative = inhibition is -5.57% in assay [1]; 1.25% in assay [2]; -1.64% in assay [3]; -16.1% in assay [4]; 2.05% in assay [5].
For the compound `C/C(=C\Cc1c(O)c(Cl)c(C)c(C=O)c1O)CC/C=C(\C)[C@H]1CC(=O)C(C)(C)O1`, the activity change, negative = inhibition in assay [1] is -3.6%; in assay [2], -3.75%; in assay [3], 7.32%; in assay [4], -23.6%; in assay [5] it was -14.5%.
Take `CCCCOc1ccc(CNC(=O)c2cc3n(n2)CC(C)(C(=O)NC2CCCCC2)N(C)C3=O)cc1` (configuration not stated): the activity change, negative = inhibition in assay [1] was determined as 2.5%; in assay [2], 5.52%; in assay [3], 0.535%; in assay [4], 0.545%; in assay [5], 1.38%.
The corresponding values for `CC(C)CNC(=O)c1ccc2c(=O)n(C(C)C)c3nn(CC(=O)NC(C)C)c(=O)n3c2c1` are 3.34%, 1.07%, 6.88%, -2.64% and 3.39%.
The corresponding values for `CCNC(=O)N1CCCC(Cc2noc(-c3cnccn3)n2)C1` (configuration not stated) are -7%, -9.84%, -5.06%, -13.7% and 0.062%.
Consider `CC1(C(=O)NC2CCCCCC2)Cn2c(cc3sccc32)C(=O)N1C1CCCc2ccccc21` (configuration not stated), for which the activity change, negative = inhibition in assay [1] was -0.047%; in assay [2], 0%; in assay [3] it was 2.54%; in assay [4] it was 1.04%; in assay [5] it was -1.6%.
In the case of `O=C(CCn1cnnn1)N1CCCC(CCc2cccc(C(F)(F)F)c2)C1` (configuration not stated), the activity change, negative = inhibition in assay [1] was -6.32%; in assay [2], -9.84%; in assay [3] it was -5.89%; in assay [4], -16.2%; in assay [5], -8.48%.
In the case of `Cc1cnn(CCC(=O)N2CCC3(CCNCC3)CC2)c1`, the activity change, negative = inhibition in assay [1] was -0.056%; in assay [2], -0.296%; in assay [3], -9.33%; in assay [4] it was -1.44%; in assay [5] it was 1.07%.
For `Cc1nn(C)c(C)c1CCN(C)Cc1ccc(=O)n(C)c1`, the activity change, negative = inhibition was -2.7% in assay [1]; 1.28% in assay [2]; 1.4% in assay [3]; 0.663% in assay [4]; -0.629% in assay [5].
Regarding `O=C(O)CCCCCC[C@H]1C(=O)NC(=O)N1CC[C@@H](O)C1CCCCC1`, the activity change, negative = inhibition is -7.14% in assay [1]; -21.3% in assay [2]; 9.83% in assay [3]; -22.5% in assay [4]; -3.02% in assay [5].
As to `COC(=O)Cc1cc2c(c([N+](=O)[O-])c1)N(C(=O)CC[C@H](N)C(=O)O)CC2`, the activity change, negative = inhibition was -4.02% in assay [1]; -6.57% in assay [2]; 6.36% in assay [3]; -14.5% in assay [4]; -0.46% in assay [5].
For the compound `CC1(C)C(=O)N(CCOc2ccccc2)[C@H]2CN(CC3CCOC3)C[C@H]2[S+]1(=O)[O-]` (some centres not stated), the activity change, negative = inhibition is -2.51% in assay [1]; -0.746% in assay [2]; -0.393% in assay [3]; -2.59% in assay [4]; 0.013% in assay [5].
With `COc1ccc(N2CCN(C(=O)CCc3nnc4n(Cc5ccccc5)c(=O)c5ccccc5n34)CC2)cc1`, the activity change, negative = inhibition in assay [1] was -15.5%; in assay [2], -2.66%; in assay [3] it was -12.1%; in assay [4] it was -13.3%; in assay [5], -14.9%.
In the case of `COCCCNC(=O)C1(C)Cn2nc(-c3ccccc3)cc2C(=O)N1c1cc(C)ccc1C` (configuration not stated), the activity change, negative = inhibition in assay [1] is 1.79%; in assay [2] it was 0%; in assay [3], 3.6%; in assay [4], 8.74%; in assay [5], -0.238%.
Consider `CSCc1noc(CN2CCCC(CO)(CC=C(C)C)C2)n1` (configuration not stated), for which the activity change, negative = inhibition was -1.56% in assay [1]; -0.544% in assay [2]; 0.209% in assay [3]; -7.96% in assay [4]; -1.28% in assay [5].
The corresponding values for `CCOc1ccccc1CNC(=O)C(CC)n1ccc2cc(S(=O)(=O)N3CCCCC3)ccc21` (configuration not stated) are 6.18%, 0.312%, 3.66%, 2.84% and 3.08%.
